According to PMC6101033 (Neuron, 2017):

Tested on: CA1 pyramidal neurons (Schaffer collateral-CA1 synapses)
Experiment: LTP in hippocampal slices of 3xTG-AD mice
Settings: Y27632 1μM; fEPSC 55–60 min; p<0.001 vs 3xTG-AD

C[C@@H](N)[C@H]1CC[C@H](C(=O)Nc2ccncc2)CC1 [Y27632]
LTP deficit in 3xTG-AD mice: reverses LTP deficits in an AD mouse model
